From PubChem BioAssay AID493208 (National Center for Advancing Translational Sciences (NCATS), 2011)
Among all 44,000 compounds or so, about 340 (0.77%) were called active. Inconclusive results (about 5%) are left out. Calls come from the whole dose curve; as a rule, active = well fitted inhibition curve with a large enough effect; inconclusive = small, poorly fitted or top-dose-only effect; inactive = flat fitted curve, though single readings scatter. The list shows a part of the results.

Assay: Acumen qHTS Assay for Inhibitors of the mTORC1 Signaling Pathway in MEF (Tsc2-/-, p53-/-) Cells: Sytravon;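 note: plate controls were DMSO for no effect and rapamycin for full effect; nearly all actives have a fitted effect of over 50% in size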
Conditions: phospho-rpS6 immunofluorescence/PI, 24 h; series mostly up to 38.3 µM; activity change, negative = inhibition: at the top concentration
How it was run: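 Plate MEFs (Tsc2-/-, p53-/-, empty vector) in DMEM/10% FBS; after 24 h add compound, incubate 24 h at 37 degree Celsius; fix in PFA/TX-100, block, stain phospho-rpS6 and 10 uM PI; scan at 488 nm; report % positive cells.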

Activity change, negative = inhibition, inactive:
CCOC(=O)c1c(NC(=O)/C=C/c2ccc(OCC)c(OC)c2)sc2c1CCC2 -1.7%
COc1cccc(CNC(=O)CCCN2C(=O)CSc3c2c(C)nn3-c2ccccc2)c1OC -10.6%
Cc1cccc(NC(=O)CN2C(=O)c3ccccc3Sc3ncccc32)c1C -1.81%
COc1ccccc1C(=O)OCc1cc(=O)n2nc(C3CCCCC3)sc2n1 -11.7%
CCn1c(NCc2ccc(OC)c(OC)c2)nc2ccccc21 -12.6%
CCOc1ccccc1CNC(=O)c1ccc2c(c1)sc1nc(-c3ccccc3)cn12 4.61%
Cc1noc2ncnc(N3CCCC(C(=O)NC(C)C)C3)c12 (centres undefined) 6.41%
Cc1ccc(Cl)cc1N1CCN(CCCNc2ncnc3onc(-c4ccc(Cl)cc4)c23)CC1 -2.36%
COc1ccc(CCNC(=O)CSC2=Nc3ccccc3C3=NC(CCC(=O)NCc4ccccc4)C(=O)N23)cc1OC (centres undefined) -0.799%
Cc1cccc(CCNC(=O)C2CCN(c3ncnc4c3nc3n4CCCCC3)CC2)c1 -9.97%
COc1ccc(NC(=O)c2ccc(NC(=O)CCS(=O)(=O)c3cccs3)cc2)cc1OC -7.55%
CCOC(=O)c1cc(-c2ccccc2)n(CCC(=O)Nc2cc(OCC)ccc2OCC)c1C -1.81%
CCCCCn1c(CCCNC(=O)c2cccc(C)c2)nc2ccccc21 5.48%
Cc1cccc(N2CCN(S(=O)(=O)c3ccc4oc(=O)c5ncn(C)c5c4c3)CC2)c1C -1.27%
O=C(CCCCn1c(=O)c2ccccc2n(CC(=O)Nc2ccccc2)c1=O)NCc1ccccc1Cl -4.67%
CCN(CC)CCCNC(=O)C1CCN(S(C)(=O)=O)CC1 4.24%
Cc1c(C)n(Cc2ccccc2)c2ccc(C(=O)NCc3ccc(OC(C)C)cc3)cc12 -22.1%
CCOC(=O)c1sc(NC(=O)C(C)Sc2nc(-c3ccccc3)cc(C(F)(F)F)n2)c(C(=O)OC)c1C (centres undefined) 1.89%
CCOc1ccc(C(=O)Nc2ccc(-c3nc4cc(C)ccc4o3)cc2)cc1 -2.42%
Cc1oc(-c2ccc(C(=O)Nc3cccc(C(F)(F)F)c3)cc2)nc1CSc1ccccc1 -8.55%
COc1ccc(Nc2nc3ccc(Cl)cc3n3nnnc23)cc1OC 10.7%
COc1ccc(-c2nc3scc(CCNS(=O)(=O)c4ccc(F)c(C(F)(F)F)c4)n3n2)cc1OC -0.602%
O=C(Oc1ccccc1Cl)c1cc(-c2ccc3c(c2)OCCO3)on1 -0.148%
Cc1ccc(NC(=O)c2cnc(N3CCCCC3)c3ccccc23)cc1Cl -1.24%
Cc1n[nH]c(C)c1CCc1nc2c3ccccc3nc(SCC(=O)Nc3ccc(F)cc3)n2n1 -14.2%
Cc1ccc(OCCn2cc(C(=O)c3ccco3)c3ccccc32)cc1C -14.7%
COc1ccc(-c2nc3nc(C)cc(Nc4cccc(C(F)(F)F)c4)n3n2)cc1 3.63%
Cc1ccc(CNC(=O)Cn2cc(S(=O)(=O)Cc3cccc(Cl)c3)c3ccccc32)cc1 -0.963%
COc1ccc(NC(=O)COc2ccc(S(=O)(=O)NC3CCCCC3)cc2)c(OC)c1 -29.1%
O=C(CCCc1nc(-c2ccccc2)no1)Nc1cc(C(F)(F)F)cc(C(F)(F)F)c1 -3.22%
Cc1cc(C)c(Cn2c3ccccc3c3cnn(CC(=O)NCc4ccc(Cl)cc4)c(=O)c32)c(C)c1 0.0526%
CCOc1ccc(NC(=O)c2cc(S(=O)(=O)N3CCCC3)c[nH]2)cc1 -5.88%
CC1=C(C(=O)Nc2ccccc2C)C(c2ccco2)n2ncnc2N1 (centres undefined) -0.475%
Cc1sc(-n2cccc2)c(C(C)NC(=O)Nc2ccccc2Cl)c1C (centres undefined) -6.19%
Cc1noc(Cn2c(=O)c3ccccc3n(CC(=O)Nc3ccc(F)cc3F)c2=O)n1 -13.8%
CCOc1ccc(CCNC(=O)c2ccc3c(c2)N(Cc2ccccc2)C(=O)c2ccccc2S3=O)cc1OCC (centres undefined) 1.54%
O=C(CN(c1cc(C(F)(F)F)ccc1Cl)S(=O)(=O)c1ccccc1)NCCc1ccccc1 -1.7%
COc1ccc(-c2c(C#N)c(SCC(=O)Nc3ccc(Br)cc3)nc(C)c2C(=O)Nc2ccccc2)cc1 8.39%
COC(=O)c1ccccc1NC(=O)c1cc2c(s1)-c1ccccc1OC2 -1.78%
O=C(CSc1nc(-c2ccccc2)c2ccccc2n1)Nc1ccc(F)cc1 -9.84%
CC1=C(C(=O)N2CCCCC2)C(c2cccc(Cl)c2)n2c(nc3ccccc32)N1 (centres undefined) -9.32%
Cc1cc(C)c(S(=O)(=O)NCCc2cc3ccc(C)cc3[nH]c2=O)c(C)c1 1.89%
CCOc1ccccc1NC(=O)Cn1c(=O)n(-c2ccccc2)c(=O)c2c1c1cc(C)ccc1n2C -6.85%
COc1ccc(NC(=O)CN2C(=O)CCc3cc(S(=O)(=O)N4CCOCC4)ccc32)c(OC)c1 2.88%
CCN(C(=O)CSc1nnc(-c2cc3occc3n2C)n1-c1ccccc1C)c1cccc(C)c1 -4.09%
COc1ccc(-c2cn3c(n2)sc2cc(C(=O)NCCCN4CCCCC4)ccc23)cc1 7.64%
CCN(CC)C(=O)c1cnn(-c2ccc(F)cc2)c1-n1cccc1 -0.874%
COc1ccc(N2CCN(C(=O)c3ccc4c(=O)n(CCc5ccc(OC)c(OC)c5)c(=O)[nH]c4c3)CC2)cc1 -5.76%
CCc1ccc(CNC(=O)CSc2cc(=O)n(CC)c3ccccc23)cc1 -8.87%
CCNC(=O)c1c(C)oc2ncn(C)c(=O)c12 1.53%
Cc1nn(CCCC(=O)Nc2cc(C(F)(F)F)ccc2Cl)c(=O)c2c1sc1ccccc12 5.59%
CCc1nn(CC(=O)N(CC)Cc2ccccc2)c(=O)c2cc3occc3n12 0.352%
CCc1ccc(NS(=O)(=O)c2ccc3[nH]cc(C(=O)NCc4ccc(C)cc4)c(=O)c3c2)cc1 -5.51%
Clc1ccc2nc(Nc3ccccc3Cl)nc(-c3ccccc3)c2c1 14.8%
CCOc1ccc(-n2c(=O)c3c4c(sc3n(Cc3cccc(C)c3)c2=O)CCCC4)cc1 4.24%
CCOCCCNC(=O)C1CCN(c2cc(C)nc3c(-c4ccc(Cl)cc4)c(C)nn23)CC1 -2.27%
O=C(Nc1ccc(Br)cc1F)C(NS(=O)(=O)c1cccc2nsnc12)c1ccccc1 (centres undefined) -3.11%
Cc1ccc(NC(=O)c2cc3c(-c4ccccc4)nn(-c4ccccc4)c3s2)cc1 -7%
COc1ccc(OC)c(NC(=O)c2c(NCc3ccc(OC)c(OC)c3)sc3c2CCC3)c1 0.956%
CCOc1ccccc1NC(=O)Nc1cc(C(=O)NCc2ccc(C)cc2)ccc1N1CCCC1 13.3%
COc1ccc(NC(=O)Cn2c(=O)n(CC(=O)NCCc3ccccc3)c(=O)c3ccccc32)cc1 -11.3%
COc1ccc(CNC(=O)c2cc3c(-c4ccccc4F)nn(C)c3s2)cc1 0.585%
O=C(Nc1cc(-c2nc3ccccc3o2)ccc1Cl)c1ccc(Br)o1 -18.3%
COc1cc(-c2noc(-c3ccc(N(C)C)c([N+](=O)[O-])c3)n2)cc(OC)c1OC 13.6%
Cc1ccc(CCNc2nc3c(S(=O)(=O)c4ccccc4)nnn3c3ccsc23)cc1 5.26%
Cc1ccccc1Cn1c2ccccc2c2cnn(CC(=O)NCCCc3ccccc3)c(=O)c21 -5.22%
O=C(Cn1c(-c2cccs2)cc2cc(F)ccc21)N1CCN(c2cccc(Cl)c2)CC1 -9.33%
COc1cccc(Cc2nc3ccccc3nc2SCC(=O)N2CCN(c3ccccc3)CC2)c1 0%
COc1ccc2c(c1)c1c(c(=O)n(-c3ccc(F)c(Cl)c3)c(=O)n1CC(N)=O)n2C -5.39%
CCOc1ccc(-c2c(C)nn3c(C)c(C(=O)NCCc4ccccc4)cnc23)cc1OCC 1.02%
CC(=O)Nc1ccc(S(=O)(=O)NC2(C(F)(F)F)NC(=O)N(c3ccccc3F)C2=O)cc1 (centres undefined) -1.24%
CCC1CN(C(=O)Nc2cccc(OC)c2)c2ccccc2O1 (centres undefined) -18%
COc1cccc2c1cc1c(=O)n(CC(=O)O)nc(C)n12 -6.19%
CCOc1ccc(Nc2sc(C(=O)c3ccc4c(c3)OCO4)c(N)c2S(=O)(=O)c2ccc(C)cc2)cc1 -0.69%
Cn1nc(C(=O)N2CCN(c3ccc(Cl)cc3)CC2)c2c1-c1ccccc1S(=O)(=O)C2 6.27%
COc1ccccc1CNC(=O)CSc1cc(=O)n(C)c2ccccc12 -1.91%
COc1ccc(-c2cc(C(F)(F)F)nc(NCc3ccc(Cl)cc3)n2)cc1 4.07%
CCOc1ccc(C2C(C(=O)Nc3ccccc3OC)=C(C)Nc3c(C(=O)Nc4cccc(C)c4)cnn32)cc1 (centres undefined) -1.29%
O=C1CC(c2nnc(Cc3cccc(Cl)c3)o2)CN1c1ccccc1 (centres undefined) 0.884%
Cc1ccc2c(c1)cc1c(=O)n(Cc3ccc(Cl)cc3)nc(C)n12 -9.74%
COc1cccc(-c2cc(C(=O)Nc3ccc(Br)c(C)c3)[nH]n2)c1 -2.3%
COc1ccc(-n2c(=O)c3ccc(C(=O)NCc4ccc(C)cc4)cc3n(Cc3cccc(Cl)c3)c2=O)cc1 -0.164%
COc1ccc(CN(Cc2ccco2)C(=O)c2ccccc2F)cc1 3.34%
CCn1c(CC2C(=O)Nc3ccccc32)nc2ccccc2c1=O (centres undefined) 3.84%
Cc1cccc(C)c1NS(=O)(=O)c1ccc2c(c1)[C@H]1C=CC[C@H]1[C@@H](c1ccc(Cl)cc1)N2 -9.09%
CCc1c(C)sc2c1CCN(Cc1ccccc1C#N)C2c1ccccc1 (centres undefined) 2.86%
CCOc1ccc(CNC(=O)C2CCN(c3nc4ccccc4nc3C(F)(F)F)CC2)cc1OC 10%
CC1CCN(c2oc(-c3cccs3)nc2S(=O)(=O)c2ccccc2)CC1 -7.85%
CCOC(=O)c1cnc2c(ccc3ccccc32)c1Nc1cccc(Cl)c1 9.94%
COc1ccc(CCNC(=O)c2cnc3sc(N4CCOCC4)nn3c2=O)cc1 -7.34%
Cc1nn(C)c2c1c(-c1ccccc1)cc(=O)n2Cc1ccc(F)cc1 1.94%
COc1ccc(-n2nc3ccc(NC(=O)c4cccc(OCCC(C)C)c4)cc3n2)cc1 7.84%
COc1ccc(CNC(=O)c2cnc(N3CCCC3)nc2C)c(OC)c1 2.16%
COc1ccccc1CNC(=O)C(NS(=O)(=O)c1ccc2c(c1)CCN2C(C)=O)C(C)C (centres undefined) 5.54%
